Measured values from article PMC10320511.
No constants are given. Whether binding was seen depends on the method and setting. In cells and extracts the contact can be indirect. Some binding calls cover weakened binding; strength is not graded here. Tags and fused reporters may be left off the sequences shown.

Amino acid sequences for entries named in this document (tags omitted).
UniProt Q01371: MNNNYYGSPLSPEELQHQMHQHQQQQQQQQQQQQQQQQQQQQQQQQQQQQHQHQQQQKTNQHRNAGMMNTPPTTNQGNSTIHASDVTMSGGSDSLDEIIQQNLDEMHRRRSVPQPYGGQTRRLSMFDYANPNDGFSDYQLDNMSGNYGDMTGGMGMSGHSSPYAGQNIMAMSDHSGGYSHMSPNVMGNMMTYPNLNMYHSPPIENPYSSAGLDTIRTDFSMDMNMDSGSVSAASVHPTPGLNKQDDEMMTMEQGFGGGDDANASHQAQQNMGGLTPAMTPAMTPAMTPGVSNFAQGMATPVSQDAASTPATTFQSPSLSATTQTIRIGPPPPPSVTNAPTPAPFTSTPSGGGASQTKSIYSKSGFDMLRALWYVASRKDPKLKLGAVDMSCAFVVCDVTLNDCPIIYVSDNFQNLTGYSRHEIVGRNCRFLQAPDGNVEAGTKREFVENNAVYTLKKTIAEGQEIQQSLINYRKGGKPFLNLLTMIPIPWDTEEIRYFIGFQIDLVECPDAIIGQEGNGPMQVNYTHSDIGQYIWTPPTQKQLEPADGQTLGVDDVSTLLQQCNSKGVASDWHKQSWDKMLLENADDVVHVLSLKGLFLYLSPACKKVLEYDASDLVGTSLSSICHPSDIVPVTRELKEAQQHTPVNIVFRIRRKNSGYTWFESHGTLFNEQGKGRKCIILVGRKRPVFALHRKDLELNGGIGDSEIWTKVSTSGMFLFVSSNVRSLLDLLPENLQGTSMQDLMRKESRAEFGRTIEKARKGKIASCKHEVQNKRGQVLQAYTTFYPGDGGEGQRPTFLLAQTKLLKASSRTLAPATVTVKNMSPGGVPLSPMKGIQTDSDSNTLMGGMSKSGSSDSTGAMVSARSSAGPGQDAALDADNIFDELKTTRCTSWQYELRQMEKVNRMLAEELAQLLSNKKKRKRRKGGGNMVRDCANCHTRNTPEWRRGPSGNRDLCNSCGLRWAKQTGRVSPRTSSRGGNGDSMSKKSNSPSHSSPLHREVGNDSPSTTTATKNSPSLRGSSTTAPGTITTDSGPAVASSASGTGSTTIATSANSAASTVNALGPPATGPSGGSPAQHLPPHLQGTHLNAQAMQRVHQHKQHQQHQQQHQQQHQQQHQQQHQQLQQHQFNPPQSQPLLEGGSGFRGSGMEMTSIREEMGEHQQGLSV

Columns and labels:
[1] = target: T1, FRQ Δ801–856, V5H6-tagged (Neurospora crassa) (UniProt P19970); experiment: co-IP; V5H6-tagged FRQ (wild type or mutant) pulled down with V5 agarose from Neurospora lysate (cultures in the light, 25 °C); 50 mM Hepes pH 7.4, 137 mM NaCl, 10% glycerol, 0.4% NP-40; 4 °C, 2 h; Western blot with FRQ, FRH, WC-1 and WC-2 antibodies
T1 sequence: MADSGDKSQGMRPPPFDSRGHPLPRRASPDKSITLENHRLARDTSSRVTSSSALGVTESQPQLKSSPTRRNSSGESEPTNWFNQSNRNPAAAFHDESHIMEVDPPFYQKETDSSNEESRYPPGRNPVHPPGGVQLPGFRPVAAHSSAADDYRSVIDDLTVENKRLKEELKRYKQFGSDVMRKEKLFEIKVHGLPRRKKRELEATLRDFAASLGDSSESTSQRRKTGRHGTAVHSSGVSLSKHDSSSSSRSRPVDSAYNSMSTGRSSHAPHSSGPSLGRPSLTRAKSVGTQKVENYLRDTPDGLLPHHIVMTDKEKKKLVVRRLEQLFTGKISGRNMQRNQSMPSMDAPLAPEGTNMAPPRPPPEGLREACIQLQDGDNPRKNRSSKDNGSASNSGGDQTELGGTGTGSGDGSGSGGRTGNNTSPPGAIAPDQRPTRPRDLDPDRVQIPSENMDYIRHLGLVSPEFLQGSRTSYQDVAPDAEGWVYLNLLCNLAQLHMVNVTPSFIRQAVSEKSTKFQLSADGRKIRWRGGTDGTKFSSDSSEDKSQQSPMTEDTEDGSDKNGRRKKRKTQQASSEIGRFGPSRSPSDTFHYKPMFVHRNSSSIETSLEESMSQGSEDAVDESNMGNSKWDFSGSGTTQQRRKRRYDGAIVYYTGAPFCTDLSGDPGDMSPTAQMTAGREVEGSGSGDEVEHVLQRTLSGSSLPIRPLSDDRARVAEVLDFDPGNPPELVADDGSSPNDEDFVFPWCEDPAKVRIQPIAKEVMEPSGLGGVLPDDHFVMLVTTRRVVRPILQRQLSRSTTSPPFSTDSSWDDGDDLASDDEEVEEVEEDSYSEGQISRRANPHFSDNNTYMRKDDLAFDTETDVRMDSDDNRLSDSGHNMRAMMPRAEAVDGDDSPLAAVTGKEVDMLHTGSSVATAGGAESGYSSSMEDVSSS

[2] = target: T2, FRQ Δ250–310, V5H6-tagged (Neurospora crassa) (UniProt P19970); experiment: as above
T2 sequence: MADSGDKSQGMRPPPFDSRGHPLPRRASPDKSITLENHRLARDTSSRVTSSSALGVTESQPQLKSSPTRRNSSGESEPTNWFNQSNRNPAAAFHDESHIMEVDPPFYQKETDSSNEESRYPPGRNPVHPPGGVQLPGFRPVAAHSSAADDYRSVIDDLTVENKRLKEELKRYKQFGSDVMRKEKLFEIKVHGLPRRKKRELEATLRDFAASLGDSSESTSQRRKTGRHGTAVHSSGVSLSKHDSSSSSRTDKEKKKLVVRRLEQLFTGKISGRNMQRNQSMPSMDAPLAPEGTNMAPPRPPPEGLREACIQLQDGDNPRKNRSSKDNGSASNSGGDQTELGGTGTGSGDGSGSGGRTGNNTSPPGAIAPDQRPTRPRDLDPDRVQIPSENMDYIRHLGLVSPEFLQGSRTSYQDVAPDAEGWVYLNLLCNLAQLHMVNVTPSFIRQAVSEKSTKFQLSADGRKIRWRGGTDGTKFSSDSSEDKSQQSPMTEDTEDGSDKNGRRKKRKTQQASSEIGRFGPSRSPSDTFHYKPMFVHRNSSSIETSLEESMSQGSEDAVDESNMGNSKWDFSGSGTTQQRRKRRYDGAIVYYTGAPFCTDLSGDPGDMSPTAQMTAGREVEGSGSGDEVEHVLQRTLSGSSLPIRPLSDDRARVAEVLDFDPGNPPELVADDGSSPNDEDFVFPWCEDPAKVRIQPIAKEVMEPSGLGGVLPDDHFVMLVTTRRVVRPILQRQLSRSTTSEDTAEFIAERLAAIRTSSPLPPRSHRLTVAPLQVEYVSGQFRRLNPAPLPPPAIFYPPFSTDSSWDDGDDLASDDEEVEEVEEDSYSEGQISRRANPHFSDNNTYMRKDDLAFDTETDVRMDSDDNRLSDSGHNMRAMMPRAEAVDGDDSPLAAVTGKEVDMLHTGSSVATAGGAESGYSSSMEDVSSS

binding [1]: no binding | binding [2]: binds
Substance: White Collar-1 (WC-1) (from UniProt Q01371 1-1167)
